Over roughly 81,000 sequences, “one-hybrid fitness for binding NBS DNA” has its median near -0.1; the highest 2% begin near 0.36. The list shows a part of the results.
B1: Caulobacter ParB omega fusion; a variant is named by its letters at X, in order, B8GW30 (parent)
chain: MESVVVGEPGMSEGRRGLGRGLSALLGEVDAAPAQAPGEQLGGSREAPIEILQRNPDQPRRTFREEDLEDLSNSIREKGVLQPILVRPSPDTAGEYQIVAGERAWRAAQRAGLKTVPIMVRELDDLAVLEIGIIENVQRADLNVLEEALSYKVLMEKFERTQENIAQTIGKSXSHVANXMRLLXLPDEVQSYLVSGELTAXHARAIAAAADPVALAKQIIEGGLSVRETEALARKAPNLSAGKSKGGRPPRVKDTDTQALESDLSSVLGLDVSIDHRGSTGTLTITYATLEQLDDLCNRLTRGI

Variants of: B1
Assay: one-hybrid fitness for binding NBS DNA (the Noc-binding site; scaled: cognate 1, non-cognate 0); higher = stronger binding
Conditions: with NBS DNA site
In short: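 Fitness is the rescaled log change in variant-to-wild-type read ratio, measured by Illumina sequencing of plasmids before and after bacterial one-hybrid selection. The scale puts cognate at 1 and non-cognate at 0. Selection of Caulobacter ParB libraries, four specificity codons randomised, took place in E. coli USO with a HIS3 reporter, site 19 bp from the promoter, over 48 hours at 37°C on M9-minus-histidine with 0.1 mM IPTG and 5 mM 3-AT.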

Variant	one-hybrid fitness for binding NBS DNA
RWLK	≤ 0.2
KMYT	≤ 0.2
MAIH	≤ 0.2
RRKC	0.375
VLIF	≤ 0.2
CNPS	≤ 0.2
QNAH	≤ 0.2
CKRA	≤ 0.2
EVAR	≤ 0.2
RQQK	≤ 0.2
AGKR	≤ 0.2
NSRG	≤ 0.2
RCLM	≤ 0.2
LMTL	≤ 0.2
DDTD	≤ 0.2
RDML	≤ 0.2
SALR	≤ 0.2
AGGV	≤ 0.2
SQTD	≤ 0.2
AAYN	≤ 0.2
AWPF	≤ 0.2
PAEC	≤ 0.2
GTAR	≤ 0.2
YQRV	≤ 0.2
RFGS	≤ 0.2

Variant	one-hybrid fitness for binding NBS DNA
WHEL	≤ 0.2
PNKC	≤ 0.2
HNKE	≤ 0.2
LFTT	≤ 0.2
KVYT	≤ 0.2
FDHR	≤ 0.2
KKRN	≤ 0.2
PDSI	≤ 0.2
HSVE	≤ 0.2
CDQK	≤ 0.2
SRFE	≤ 0.2
VPKY	≤ 0.2
LCLL	≤ 0.2
RIGK	≤ 0.2
FPHC	≤ 0.2
RNRF	≤ 0.2
WASQ	≤ 0.2
EGNR	≤ 0.2
VCVT	≤ 0.2
QRTE	0.289
QTHP	≤ 0.2
HYTP	≤ 0.2
TMEN	≤ 0.2
ADLD	≤ 0.2
PKQL	≤ 0.2

Variant	one-hybrid fitness for binding NBS DNA
TESY	≤ 0.2
DPWT	≤ 0.2
RKSQ	≤ 0.2
VYTP	≤ 0.2
TQKY	≤ 0.2
GQMT	≤ 0.2
PHVS	≤ 0.2
MDWV	≤ 0.2
HRCS	≤ 0.2
ADVE	≤ 0.2
KWAT	≤ 0.2
SCMC	≤ 0.2
FYTS	≤ 0.2
PFNV	≤ 0.2
HYPW	≤ 0.2
RRLN	0.23
AQGT	≤ 0.2
KMCS	≤ 0.2
KQMN	≤ 0.2
LFGV	≤ 0.2
RHMK	≤ 0.2
PANR	≤ 0.2
KRPP	≤ 0.2
WVLG	≤ 0.2
SEMV	≤ 0.2

Variant	one-hybrid fitness for binding NBS DNA
FCRC	≤ 0.2
VSTC	≤ 0.2
MLVC	≤ 0.2
FWVR	≤ 0.2
HADS	≤ 0.2
WAAM	≤ 0.2
QEAK	≤ 0.2
YPLD	≤ 0.2
LWTW	≤ 0.2
VQSG	≤ 0.2
TSRQ	≤ 0.2
LKFC	≤ 0.2
PCSG	≤ 0.2
FMLY	≤ 0.2
KLDW	≤ 0.2
ANCL	≤ 0.2
RVEP	≤ 0.2
PQEY	≤ 0.2
YCWI	≤ 0.2
TEHK	≤ 0.2
EDRC	≤ 0.2
FYTV	≤ 0.2
HMVS	≤ 0.2
